In publication PMC4336329 (PLoS ONE, 2015):
Screen size: about 310,000 compounds; about 2,200 (0.71%) showed an effect of 50% or more. The effect is printed as a negative number. The list shows a part of the results.

biological target: human ether-à-go-go-related gene (hERG) potassium channel (human, UniProt Q12809); assay: primary screen, population patch clamp on CHO cells stably expressing hERG
Sequence (Q12809 whole entry, looked up): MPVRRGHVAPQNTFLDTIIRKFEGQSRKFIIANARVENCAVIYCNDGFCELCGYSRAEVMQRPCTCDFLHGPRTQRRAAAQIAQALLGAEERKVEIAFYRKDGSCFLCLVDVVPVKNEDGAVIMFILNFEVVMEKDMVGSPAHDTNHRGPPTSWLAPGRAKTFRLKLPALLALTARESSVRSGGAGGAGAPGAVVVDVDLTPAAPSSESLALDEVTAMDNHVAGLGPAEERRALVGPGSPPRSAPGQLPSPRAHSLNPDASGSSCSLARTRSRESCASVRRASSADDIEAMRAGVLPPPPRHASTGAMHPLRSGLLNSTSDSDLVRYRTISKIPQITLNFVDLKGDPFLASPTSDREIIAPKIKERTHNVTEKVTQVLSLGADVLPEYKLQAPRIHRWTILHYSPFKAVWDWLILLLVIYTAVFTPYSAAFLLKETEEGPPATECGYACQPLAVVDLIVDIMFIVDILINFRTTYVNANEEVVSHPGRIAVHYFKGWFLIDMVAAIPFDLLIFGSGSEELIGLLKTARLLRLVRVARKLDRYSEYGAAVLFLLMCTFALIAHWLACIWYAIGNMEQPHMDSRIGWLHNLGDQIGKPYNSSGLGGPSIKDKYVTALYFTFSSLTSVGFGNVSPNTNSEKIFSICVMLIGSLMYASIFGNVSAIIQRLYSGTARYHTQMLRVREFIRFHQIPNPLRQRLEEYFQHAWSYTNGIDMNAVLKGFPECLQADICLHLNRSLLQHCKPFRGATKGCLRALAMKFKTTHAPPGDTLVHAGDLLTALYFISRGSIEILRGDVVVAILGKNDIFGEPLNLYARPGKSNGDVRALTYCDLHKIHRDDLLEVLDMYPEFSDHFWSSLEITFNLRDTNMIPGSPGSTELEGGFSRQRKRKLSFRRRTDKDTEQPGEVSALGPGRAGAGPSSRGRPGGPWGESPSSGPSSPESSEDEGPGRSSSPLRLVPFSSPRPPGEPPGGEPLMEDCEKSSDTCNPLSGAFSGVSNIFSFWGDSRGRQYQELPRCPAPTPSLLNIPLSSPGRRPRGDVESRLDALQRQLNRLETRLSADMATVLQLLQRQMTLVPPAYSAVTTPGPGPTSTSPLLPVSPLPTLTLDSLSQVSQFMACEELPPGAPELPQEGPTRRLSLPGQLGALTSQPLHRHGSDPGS

Compound | hERG current change (%, negative = inhibition) at 1uM [%]
COc1ccc(C(=O)C[n+]2ccccc2C)cc1.[Br-] | 11.7
Cc1ccc(SCC(=O)NNC(=O)c2ccccc2)cc1C | 14
COc1ccc(NC(=O)CSc2nc3[nH]c(=O)cc(O)c3s2)c(OC)c1 | 18.5
CC(C)(C)NC(=O)CN(Cc1cccs1)C(=O)C1COc2ccccc2O1 (centres unmarked) | 9.73
CCN(CC(=O)Nc1c(F)cccc1F)C(=O)c1cnc(C)cn1 | 7.97
CCCN(CCC)C(=S)Nc1cc(C(=O)OC)ccc1C(=O)OC | -0.668
CCOc1cc(/C=C(\C#N)C(=O)NCC2CCCO2)ccc1O (centres unmarked) | -1.27
O=c1c(-c2ccc(Br)cc2)[n+]([O-])c2ccccc2n1OCc1ccccn1 | 7.05
CCCCn1c(O)c(C(C)=NCCCN(C)C)c(=O)[nH]c1=O | 13.9
COc1ccccc1-c1nnc2sc(COc3ccc(Cl)cc3Cl)nn12 | 0.358
O=C(COc1ccc(F)cc1)Nc1c(C(=O)N2CCC(N3CCCCC3)CC2)oc2ccccc12 | -33.8
COCCNC(=O)c1ccc(NS(=O)(=O)c2ccc3[nH]c(=O)[nH]c3c2)cc1 | 14.8
COc1ccccc1CN1C[C@@H]2C[C@@H](c3cccc(C)n3)N3CCC[C@@]23C1=O | 11.5
Cc1ccc(C(=O)NC2CCN(S(=O)(=O)c3ccccc3)CC2)cc1 | -0.148
CCC(C)(C(=O)NC1CCCCC1)N(C(=O)c1cnccn1)c1c(C)n(C)n(-c2ccccc2)c1=O (centres unmarked) | 11
CC(C)N(C1=CC(=O)OC12CCCCC2)C(C)C | 7.72
O=C(Nc1cccc(-c2nc3ccccc3c(=O)o2)c1)c1ccccc1 | 15.6
CC1=C(C(=O)OC(C)C)[C@]2(C(=O)N(CC(N)=O)c3ccccc32)C(C#N)=C(N)O1 | 13.8
CCNc1c([N+](=O)[O-])c(=O)n(CC)c2ccccc12 | 9.75
Oc1ccc(C(=S)N2CCCC2)cc1 | 13
CC(NC(=O)c1cn(C)c2ccc(S(=O)(=O)N3CCCC3)cc2c1=O)c1ccc2c(c1)OCCO2 (centres unmarked) | 17.3
COc1cc(C(C)=O)ccc1OCC(=O)NCC1(N2CCCCC2)CCCCC1 | 7.69
O=C(Nc1ccc(F)cc1)N1CCN(CCc2ccccc2)CC1 | -9.52

Compound | hERG current change (%, negative = inhibition) at 1uM [%]
CCOc1ccc(OCc2ccc(C(=O)N/N=C(\C)c3ccccn3)cc2)cc1 | 18
COc1ccc(C(=O)NCC(=O)OCC(=O)c2ccc3c(c2)NC(=O)CO3)cc1OC | 19.3
Cc1ccc(C(c2sc3nc(C)nn3c2O)N2CCOCC2)cc1 (centres unmarked) | 11
Cc1ccccc1NC(=O)COc1nsnc1N1CCOCC1 | 7.78
CCC1(c2ccccc2)NC(=O)N(CC(=O)Nc2ccc(S(=O)(=O)N3CC(C)CC(C)C3)cc2)C1=O (centres unmarked) | 17.4
COc1cccc(NC(=O)CN(C)C(=O)c2cccc(S(=O)(=O)N3CCN(c4ccccc4)CC3)c2)c1 | 8.29
CCc1cccc(CC)c1NC(=O)CN1CCN(c2ccccc2)CC1.Cl | 5.34
CC(C)(C)c1ccc(C(=O)c2c[nH]c(C(=O)O)c2)cc1 | 10.8
O=C(CN1C(=O)c2ccccc2S1(=O)=O)N1CCN(Cc2ccc3c(c2)OCO3)CC1 | 2.9
Cc1nn(-c2ccc(F)cc2)c(Cl)c1/C=C/C(=O)N1CCNC(=O)C1 | 8.9
O=C(Nc1ccccc1N1CCN(c2ccccc2)CC1)C12CC3CC(CC(C3)C1)C2 | -4.28
O=C(NCc1ccccc1)c1nc2ccccc2s1 | 16.5
Cc1ccc(C(=O)NCCSc2snnc2C)cc1 | 15.5
Cc1cc(C)cc(C(=O)NCC(=O)OCC(=O)NCc2ccco2)c1 | 5.8
COc1ccc(-c2noc(CCC(=O)N3CCN(c4cc(C)ccc4C)CC3)n2)cc1 | 5.56
CC(C)[C@H](NC(=O)c1ccccc1)C(=O)OCC(=O)N1CC2(C)CC1CC(C)(C)C2 (some centres unmarked) | -5.59
CCOc1ccc(CNC(=O)C(=O)c2cn(CC(=O)N3CCOCC3)c3ccccc23)cc1OC | 9.36
O=c1nc2ccccc2c2n1CC(CN1CCN(c3ccccc3F)CC1)N2 (centres unmarked) | -20.7
O=C(CSc1ncccn1)NC1CCS(=O)(=O)C1 (centres unmarked) | 3.19
c1cncc(Nc2nc(-c3cccnc3)cs2)c1 | 5.1
CC1C(=O)N2CCCc3cc(NC(=O)COc4ccccc4)cc1c32 (centres unmarked) | -3.46
CCOc1ccccc1OCC(=O)NNC(=O)Cn1cnc2c1c(=O)n(C)c(=O)n2C | 14.2
COc1ccc(/C(N)=N/OC(=O)c2cccc([N+](=O)[O-])c2)cc1 | 12.8

Compound | hERG current change (%, negative = inhibition) at 1uM [%]
CCNC(=O)NC(=O)C(C)OC(=O)c1oc2ccc(OC)cc2c1C (centres unmarked) | 9.73
Cc1ccc(C(=O)NCc2ccco2)cc1S(=O)(=O)Nc1cccc(Cl)c1 | 3.98
Cc1cc(C)cc(NC(=O)CSc2nnc(CNC(=O)c3ccco3)o2)c1 | 16.4
O=C(NCCc1ccccc1)[C@@H]1CC=C[C@@H]2CCN(C3CCCCC3)C(=O)[C@@H]21 | 14.5
CC1=C(C)CC(C(=O)Nc2nc(-c3ccc(F)cc3)c(C)s2)C(C(=O)O)C1 (centres unmarked) | 17.3
CCOC(=O)c1c(/N=C/C2C(=O)CCCC2=O)sc2c1CCCC2 | 8.94
Cc1ccc(N2C(=O)c3ccccc3C(C)(C)C2=O)cc1 | 9.83
CNCCOc1nc(N2CCOCC2)nc(C)c1[N+](=O)[O-] | 10.1
O=C(CSc1nc2ccccc2s1)NC1CCS(=O)(=O)C1 (centres unmarked) | 11.8
S=C(NC1CC1)SCc1ccco1 | 5.89
COc1ccc(S(=O)(=O)N2CCC(C(=O)NCc3ccncc3)CC2)cc1 | 8.11
COc1ccc(NC(=O)/C(C#N)=C/c2c(C)nn(-c3ccc(F)cc3)c2Cl)cc1OC | 5.41
Cc1c(C(=O)NN)sc(=S)n1C | 12
O=[N+]([O-])c1cccc(C(=S)N2CCCC2)c1 | 10.8
O=C(NCc1cccs1)C1CCCN1C(=O)Nc1ccccc1Cl (centres unmarked) | 10.5
COCCNc1nnc(SCC(=O)NC(=O)c2ccccc2OC)s1 | 11.2
COc1ccc(C2C(C(=O)N3CCCCC3)c3ccccc3C(=O)N2C)cc1 (centres unmarked) | 9.56
Cc1nnc(NCCc2ccccc2)[nH]c1=O | -16.7
COc1cccc(OC)c1C(=O)Nc1ccc(C)cc1C(=O)c1ccccc1 | 16.8
COc1cccc(CNC(=O)CCS(=O)(=O)c2ccc3c(c2)oc(=O)n3C)c1 | 15.3
CCn1c(SCC(=O)Nc2nc(-c3ccccc3)cs2)nnc1-c1ccccc1 | -13.3
CCCC(C)NC(=O)c1ccc(F)cc1 (centres unmarked) | 12.3
Fc1ccc(Nc2ccnc(Nc3ccc(F)cc3)n2)cc1 | 14.4

Compound | hERG current change (%, negative = inhibition) at 1uM [%]
Nc1nc(-c2ccccc2)c(-c2ccccc2)s1 | 12.2
COc1cccc(N2CCN(c3cnc4ccccc4n3)CC2)c1 | 4.79
CC(C)(C)NC(=O)Cn1c(-c2nonc2N)nc2ccccc21 | 11.2
Cc1ccc(C(=O)c2c(NC(=O)c3ccncc3)sc3c2CCCC3)cc1 | 12
COc1cccc(CNS(=O)(=O)c2cc3c(cc2C)n(C)c(=O)c(=O)n3C)c1 | 2.13
O=C(CN1C(=O)NC2(CCCCCC2)C1=O)NCCc1ccccc1 | 12.9
O=C(Cc1ccccc1)N1CCN(C2CCCCCC2)CC1.O=C(O)C(=O)O | 4.29
CSc1nc(Cl)cc(Nc2ccccc2N)n1 | 10.4
Cc1cccc(NC(=O)C2CCN(S(=O)(=O)c3ccc4c(c3)NC(=O)CO4)CC2)c1C | 15
CCN(CC)CCNC(=O)c1ccc(NC(=O)c2ccccc2-c2ccc(C(F)(F)F)cc2)cc1 | -1.19
O=C(NCC1OCCc2ccccc21)C1COc2ccccc2O1 (centres unmarked) | 10
COCCSc1ccccc1C(=O)Nc1ccc(Cl)cn1 | 0.534
Oc1c(Br)cc(/C=N/NC(=S)NCc2ccco2)cc1Br | 21.2
CC(=O)Nc1cccc(NC(=O)c2oc3ccccc3c2C)c1 | -4.04
COC(=O)c1ccc(NC(=O)CNCc2ccncc2)cc1.O=C(O)C(=O)O | 13.9
O=C(O)CCCC(=O)Nc1ccc(N2CCCC2)cc1 | 9.63
CCn1c(SCC(=O)N(C)c2c(N)n(Cc3ccccc3)c(=O)[nH]c2=O)nc2ccccc21 | 11.6
CCOc1ccc(NC(=O)CN(C)C(=O)c2cn(-c3ccccc3)nc2-c2cccs2)cc1OCC | 3.71
Fc1ccc(CNCc2ccccc2Cl)cc1.O=C(O)C(=O)O | 8.73
CCC(=O)c1c(O)n(C2CCCCCC2)c(=O)[nH]c1=O | 15.5
